Data from PMC5075699.

Experiments:
ATF4 = ATF4 western blot, 293T cell lysate controls (ER stress induction); settings: 293T cells treated to induce ER stress, vs untreated control lysate
nontransgenic (NTG) mice = experiment: Morris water maze #2, nontransgenic (NTG) mice; settings: 2.5 mpk in 50% DMSO/50% PEG; vs vehicle
nontransgenic mice [1] = experiment: Contextual fear conditioning; settings: 2.5 mpk single i.p. injection after foot shock; context test 24 hours later; first 4, second 4, total 8 min
nontransgenic mice [2] = experiment: Pilot Morris water maze #1 (spatial learning and memory); settings: 24-hour probe trial; 0.1 and 0.25 mpk

Compound: C/C=C(/C)C(=O)O[C@H]1C(C)=C2[C@H]([C@@H]1OC(=O)CCCCCCC)[C@@](C)(OC(C)=O)C[C@H](OC(=O)CCC)[C@@]1(O)[C@H]2OC(=O)[C@@]1(C)O [Thapsigargin, thapsigargin]
- ATF4 protein levels by western blotting (ATF4): elevated levels

Compound: tunicamycin
- ATF4 protein levels by western blotting (ATF4): elevated levels

Compound: O=C(COc1ccc(Cl)cc1)NC1CCC(NC(=O)COc2ccc(Cl)cc2)CC1 (centres unmarked) [ISRIB]
- MWM training latency NTG Trial*ISRIB (linear mixed effects regression model) (nontransgenic (NTG) mice): 0.3 sec/day
- freezing behavior vs vehicle (contextual fear memory) (nontransgenic mice [1]): did not observe a significant difference in freezing behavior
- memory for the location of the hidden platform, multiple outcome measures (nontransgenic mice [2]): No significant improvement in memory
